In the supplement of paper PMC8728848:
The other results are listed elsewhere or left out.

Columns and labels:
Experiment in all cases: glycan array binding signal (z-score within array); higher = stronger binding
Settings in all cases: glycan notation: IUPAC condensed, linker removed
[1] = target: Neu5Ac(a2-8)Neu5Ac
Summary of the method: (§1)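 Glycan array binding is given as a within-array Z-score, which can be read as non-binding when negative. The arrays, 3228 of them, came from the Consortium for Functional Glycomics database and were retained only where the protein sequence was available. Z-scores were averaged across arrays of the same protein sequence at different concentrations or buffers and across linkers.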

[2] = target: Neu5Ac(a2-8)Neu5Ac(a2-3)Gal(b1-3)GalNAc(b1-4)[Neu5Ac(a2-3)]Gal(b1-4)Glc
Summary of the method: as §1

[3] = target: Neu5Ac(a2-8)Neu5Ac(a2-3)Gal(b1-3)GalNAc(b1-4)[Neu5Ac(a2-8)Neu5Ac(a2-3)]Gal(b1-4)Glc
Summary of the method: as §1

[4] = target: Neu5Ac(a2-8)Neu5Ac(a2-3)Gal(b1-4)Glc
Summary of the method: as §1

[5] = target: Neu5Ac(a2-8)Neu5Ac(a2-3)Gal(b1-4)GlcNAc
Summary of the method: as §1

[6] = target: Neu5Ac(a2-8)Neu5Ac(a2-3)[Gal(b1-3)GalNAc(b1-4)]Gal(b1-4)Glc
Summary of the method: as §1

[7] = target: Neu5Ac(a2-8)Neu5Ac(a2-3)[GalNAc(b1-4)]Gal(b1-4)Glc
Summary of the method: as §1

[8] = target: Neu5Ac(a2-8)Neu5Ac(a2-8)Neu5Ac
Summary of the method: as §1

[9] = target: Neu5Ac(a2-8)Neu5Ac(a2-8)Neu5Ac(a2-3)Gal(b1-4)Glc
Summary of the method: as §1

[10] = target: Neu5Ac(a2-8)Neu5Ac(a2-8)Neu5Ac(a2-3)[Gal(b1-3)GalNAc(b1-4)]Gal(b1-4)Glc
Summary of the method: as §1

[11] = target: Neu5Ac(a2-8)Neu5Ac(a2-8)Neu5Ac(a2-3)[GalNAc(b1-4)]Gal(b1-4)Glc
Summary of the method: as §1

[12] = target: Neu5Ac(a2-8)Neu5Ac(a2-8)Neu5Ac(a2-8)Neu5Ac(a2-3)[GalNAc(b1-4)]Gal(b1-4)Glc
Summary of the method: as §1

[13] = target: Neu5Ac(a2-8)Neu5Gc(a2-3)Gal(b1-4)GlcNAc
Summary of the method: as §1

[14] = target: Neu5Ac(b2-6)Gal(b1-4)GlcNAc
Summary of the method: as §1

[15] = target: Neu5Ac(b2-6)GalNAc
Summary of the method: as §1

[16] = target: Neu5Ac9Ac(a2-3)Gal(b1-3)GlcNAc
Summary of the method: as §1

[17] = target: Neu5Ac9Ac(a2-3)Gal(b1-4)GlcNAc
Summary of the method: as §1

[18] = target: Neu5Ac9Ac(a2-6)Gal(b1-4)GlcNAc
Summary of the method: as §1

[19] = target: Neu5Gc(a2-3)Gal(b1-3)GlcNAc
Summary of the method: as §1

[20] = target: Neu5Gc(a2-3)Gal(b1-3)[Fuc(a1-4)]GlcNAc
Summary of the method: as §1

[21] = target: Neu5Gc(a2-3)Gal(b1-4)Glc
Summary of the method: as §1

[22] = target: Neu5Gc(a2-3)Gal(b1-4)GlcNAc
Summary of the method: as §1

[23] = target: Neu5Gc(a2-3)Gal(b1-4)GlcNAc(b1-3)Gal(b1-4)GlcNAc(b1-2)Man(a1-3)[Neu5Gc(a2-3)Gal(b1-4)GlcNAc(b1-3)Gal(b1-4)GlcNAc(b1-2)Man(a1-6)]Man(b1-4)GlcNAc(b1-4)GlcNAc
Summary of the method: as §1

[24] = target: Neu5Gc(a2-3)Gal(b1-4)[Fuc(a1-3)]GlcNAc
Summary of the method: as §1

[25] = target: Neu5Gc(a2-6)Gal(b1-4)GlcNAc
Summary of the method: as §1

[26] = target: Neu5Gc(a2-6)GalNAc
Summary of the method: as §1

[27] = target: Neu5Gc(a2-8)Neu5Ac(a2-3)Gal(b1-4)GlcNAc
Summary of the method: as §1

[28] = target: Neu5Gc(a2-8)Neu5Gc(a2-3)Gal(b1-4)GlcNAc
Summary of the method: as §1

[29] = target: Neu5Gc(a2-8)Neu5Gc(a2-3)Gal(b1-4)GlcNAc(b1-3)Gal(b1-4)GlcNAc
Summary of the method: as §1

[30] = target: Neu5Gc(a2-8)Neu5Gc(a2-6)Gal(b1-4)GlcNAc
Summary of the method: as §1

[31] = target: Neu5Gc(b2-6)Gal(b1-4)GlcNAc
Summary of the method: as §1

B1: Cohesin-marm-DC-ASGPR-CRD (protein)
chain: LDITSHHHHHHDDLDAVRIKVDTVNAKPGDTVRIPVRFSGIPSKGIANCDFVYSYDPNVLEIIEIEPGDIIVDPNPDKSFDTAVYPDRKIIVFLFAEDSGTGAYAITKDGVFATIVAKVKEGAPNGLSVIKFVEVGGFANNDLVEQKTQFFDGGVNVGDTTEPATPTTPVTTPTTTDDLDAASCPINWVEHQGSCYWFSRSGKTWPEAERYCQLENTHLVVINSREEQNFVQAHLGSAYTWMGLSDPEGVWKWVDGTDYSSGFQNWKPGQPDDWQGHGLGGGEDCAHFHPDGRWNDDVCQRSYHWVCEAGLTQASQDSH
glycan array binding signal (z-score) [1]: -0.427 | glycan array binding signal (z-score) [2]: -0.307 | glycan array binding signal (z-score) [3]: -0.448 | glycan array binding signal (z-score) [4]: -0.448 | glycan array binding signal (z-score) [5]: -0.462 | glycan array binding signal (z-score) [6]: 2.38 | glycan array binding signal (z-score) [7]: 2.56 | glycan array binding signal (z-score) [8]: -0.444 | glycan array binding signal (z-score) [9]: -0.449 | glycan array binding signal (z-score) [10]: -0.419 | glycan array binding signal (z-score) [11]: 2.38 | glycan array binding signal (z-score) [12]: 3.12 | glycan array binding signal (z-score) [13]: -0.459 | glycan array binding signal (z-score) [14]: -0.444 | glycan array binding signal (z-score) [15]: -0.192 | glycan array binding signal (z-score) [16]: -0.164 | glycan array binding signal (z-score) [17]: -0.447 | glycan array binding signal (z-score) [18]: -0.353 | glycan array binding signal (z-score) [19]: -0.441 | glycan array binding signal (z-score) [20]: -0.423 | glycan array binding signal (z-score) [21]: -0.435 | glycan array binding signal (z-score) [22]: -0.42 | glycan array binding signal (z-score) [23]: -0.396 | glycan array binding signal (z-score) [24]: 2.58 | glycan array binding signal (z-score) [25]: -0.421 | glycan array binding signal (z-score) [26]: 2.85 | glycan array binding signal (z-score) [27]: -0.448 | glycan array binding signal (z-score) [28]: -0.448 | glycan array binding signal (z-score) [29]: -0.462 | glycan array binding signal (z-score) [30]: -0.447 | glycan array binding signal (z-score) [31]: -0.434
